Experimental data reported in paper PMC7819943, “Rice protein-binding microarrays: a tool to detect cis-acting elements near promoter regions in rice”.
The other results are listed elsewhere or left out.

What follows are sequences tested against T1, OsWOX13 (Oryza sativa, UniProt Q5QMM3 1-267) (assay: protein-binding microarray (RPBM); PBS, 2% BSA, 51.3 ng/ul salmon testes DNA, 50 uM zinc acetate, 200 nM TF, 25 C, 1 h; high values mean tight binding). Conditions: protein: recombinant; tags: N-terminal polyhistidine and DsRed monomer fusion (pET32a); label: CyDye5-dUTP incorporated in the synthesized complementary strand; 3' TTTTT single-stranded linker to array surface; dsDNA, one strand shown.
T1 sequence: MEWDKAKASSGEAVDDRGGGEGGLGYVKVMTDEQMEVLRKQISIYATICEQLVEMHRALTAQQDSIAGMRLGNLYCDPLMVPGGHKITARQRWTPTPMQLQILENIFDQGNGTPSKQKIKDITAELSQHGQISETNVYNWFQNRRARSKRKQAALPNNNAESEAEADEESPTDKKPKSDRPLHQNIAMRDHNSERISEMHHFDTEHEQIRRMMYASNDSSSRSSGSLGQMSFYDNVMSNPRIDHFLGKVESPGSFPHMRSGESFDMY
Summary of the method: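 For the binding signal, per-feature fluorescence intensity was read in arbitrary units on an Axon 4000B scanner. Before scanning, a 2% BSA-blocked custom Agilent array made double-stranded with Cy5-dUTP was washed after 1 h at 25 °C with 200 nM protein and 50 µM zinc acetate. The proteins were Ni–NTA-purified transcription factors with N-terminal polyhistidine and DsRed fusions, expressed in E. coli BL21-CodonPlus.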
“GTAAATAGAGTGGATGCGCTGCACGCGGTTGGGGATGGGTCGGAGTCACCTAGTGCAG” was tested, and the binding signal was 5730 fluorescence intensity (a.u.).
With “CTTCAATCAATTTCTCGCCCACAGATTAATTACACCAGCCCGGAGTCACCTAGTGCAG” the binding signal was 35900 fluorescence intensity (a.u.).
For “TTAACCAATTATAACTAGCAATATGCCCAAGCTAACGCTACGGAGTCACCTAGTGCAG”, the binding signal was 3960 fluorescence intensity (a.u.).
With “CACTGATGAAGTGATGACACTCCATGCATCCAATCCAGGCCGGAGTCACCTAGTGCAG” the binding signal was 9860 fluorescence intensity (a.u.).
“ATCAAATTCAATCAAAACAATACTGACCGAATTAATGACCCGGAGTCACCTAGTGCAG” was tested, and the binding signal was 11700 fluorescence intensity (a.u.).
“AACTATTAATTTGACATCTACTTCATATCGAACTATTATTCGGAGTCACCTAGTGCAG” was tested, and the binding signal was 9350 fluorescence intensity (a.u.).
“CAGTTTTCTTGATTTATAATCTGTTCCAATTGTTCAGGTGCGGAGTCACCTAGTGCAG” was tested, and the binding signal was 15100 fluorescence intensity (a.u.).
For “GATTGATTGGATGACGCCAAGCGGCAAATCGTATCGAACCCGGAGTCACCTAGTGCAG”, the binding signal was 43600 fluorescence intensity (a.u.).
For “TAAATTGATTGTGTAGTAAGAGTTGCTCCGTTTTACGCGCCGGAGTCACCTAGTGCAG”, the binding signal was 49400 fluorescence intensity (a.u.).
With “TCCTCCGTTAACTGCTCGCTGAATTGGATAGCAGACTACGCGGAGTCACCTAGTGCAG” the binding signal was 8100 fluorescence intensity (a.u.).
In the case of “GAAACGAACGCGGGAATTGATAGATATGGGCCCCACCGGTCGGAGTCACCTAGTGCAG”, the binding signal is reported as 6710 fluorescence intensity (a.u.).
For “AGTCAAATTAGCCACGTAGATGCTACATCAGCTAAAACCGCGGAGTCACCTAGTGCAG”, the binding signal was 3530 fluorescence intensity (a.u.).
“GTAATTAGTTGTTTGATACCCGACGCATTATTTTATTATTCGGAGTCACCTAGTGCAG” was tested, and the binding signal was 3500 fluorescence intensity (a.u.).
“CAATATAATTACATATATTGAAATATAAACTAGGAGTTGTCGGAGTCACCTAGTGCAG” was tested, and the binding signal was 26200 fluorescence intensity (a.u.).
With “GGAAAGTGGACAATTAAATCAAGCGATGATGTGGATGTGGCGGAGTCACCTAGTGCAG” the binding signal was 3570 fluorescence intensity (a.u.).
With “ACCAGGCATAATAACTTGTAATTGATGTAATTTGATTCCACGGAGTCACCTAGTGCAG” the binding signal was 18400 fluorescence intensity (a.u.).
In the case of “CTAACCGAATTGACCGAACAAAATTCGGTCTTTTACTGCCCGGAGTCACCTAGTGCAG”, the binding signal is reported as 5480 fluorescence intensity (a.u.).
For “CCACATGTCATTGTCACCTCCTAATTAACCCCGAAGGCAACGGAGTCACCTAGTGCAG”, the binding signal was 3360 fluorescence intensity (a.u.).
For “TTTAATATTAAATTTAATGAAACTAATTTGGTGTTACAGACGGAGTCACCTAGTGCAG”, the binding signal was 28300 fluorescence intensity (a.u.).
“AATATAATCTATCACAATTCACAAATGCTATAGAATTTCGCGGAGTCACCTAGTGCAG” was tested, and the binding signal was 3520 fluorescence intensity (a.u.).
In the case of “TATAAATTGCATATAAATTTGTTCCAAAATTTTCCCTCTTCGGAGTCACCTAGTGCAG”, the binding signal is reported as 33000 fluorescence intensity (a.u.).
With “TATGACATGCGAGGGGATTAATTAGAAGCCTGAGGTTGGACGGAGTCACCTAGTGCAG” the binding signal was 4070 fluorescence intensity (a.u.).
With “TTGGACGCTAATTTGGAGTATTAAACATAGACTAGTAAAACGGAGTCACCTAGTGCAG” the binding signal was 5910 fluorescence intensity (a.u.).
For “ACAATTGATAGATTTGTCTGTTGCTTTGCTTTGATTCCTCCGGAGTCACCTAGTGCAG”, the binding signal was 43800 fluorescence intensity (a.u.).
With “AAAATTGGGAACCATGATAGGTATAGAACGCAGCCTTACTCGGAGTCACCTAGTGCAG” the binding signal was 6380 fluorescence intensity (a.u.).
“ATGATGGATGAAGATGGAACTGACATGTAGGTCGAACTCGCGGAGTCACCTAGTGCAG” was tested, and the binding signal was 7030 fluorescence intensity (a.u.).
In the case of “GATCCGCTCAGTACACCGTAATTAATTGCCACATTTTAAACGGAGTCACCTAGTGCAG”, the binding signal is reported as 4580 fluorescence intensity (a.u.).
With “GAAATGTCAATCAAACTCGGTGTAAAGTTGAAGGGACGGTCGGAGTCACCTAGTGCAG” the binding signal was 36800 fluorescence intensity (a.u.).
“CGATGATATAATTAGCATGAGGACATAGAATTCTAATTAACGGAGTCACCTAGTGCAG” was tested, and the binding signal was 8620 fluorescence intensity (a.u.).
With “ATCTGATTTCCCTACAGAAAGACTGCGAGTGCAGTGGCAGCGGAGTCACCTAGTGCAG” the binding signal was 5010 fluorescence intensity (a.u.).
For “AACATCACAACCACACTTATGATTGAATTTGAAATTCTGACGGAGTCACCTAGTGCAG”, the binding signal was 9820 fluorescence intensity (a.u.).
In the case of “CGGTTTTGTAAATTGAGGGGTGCCATATATCTGGTTTCATCGGAGTCACCTAGTGCAG”, the binding signal is reported as 5000 fluorescence intensity (a.u.).
In the case of “TGGGGTAAGTATGATTGAGTGTTACATTTAACTATTTGCCCGGAGTCACCTAGTGCAG”, the binding signal is reported as 17600 fluorescence intensity (a.u.).
With “TAATTAATTAATTAATTTGGTCAAGCGGTTAATCACCTGGCGGAGTCACCTAGTGCAG” the binding signal was 47400 fluorescence intensity (a.u.).
For “ATATTAAATTTATTTACCATCATTGATTAGATAATTCGCGCGGAGTCACCTAGTGCAG”, the binding signal was 37300 fluorescence intensity (a.u.).
With “TCATTCCAATTTTAACTAAACTTTTAATTTTGGTGTGAACCGGAGTCACCTAGTGCAG” the binding signal was 4780 fluorescence intensity (a.u.).
For “GGTCTAACTAATTATCACCCCTACCTACAAAATTACGGTCCGGAGTCACCTAGTGCAG”, the binding signal was 18600 fluorescence intensity (a.u.).
In the case of “AGGAATAATTGTATTAAGATTTAATAAATTATGATATTTTCGGAGTCACCTAGTGCAG”, the binding signal is reported as 12200 fluorescence intensity (a.u.).
For “AGCAATTAAGCCTCGTGTTGTGATTGGTTGGCTGGTTGGTCGGAGTCACCTAGTGCAG”, the binding signal was 9970 fluorescence intensity (a.u.).
In the case of “GCAGAATGGTTGATTGTCTCCTATAAATAGGAGCCCAGCTCGGAGTCACCTAGTGCAG”, the binding signal is reported as 22800 fluorescence intensity (a.u.).
“AAATTATAATTGAGCTGCCTCATCAATGACGACGGAAATCCGGAGTCACCTAGTGCAG” was tested, and the binding signal was 9180 fluorescence intensity (a.u.).
With “TGCAACACAAATTATCTAAGCGACGCTGTTTAGCATATCCCGGAGTCACCTAGTGCAG” the binding signal was 4040 fluorescence intensity (a.u.).
